# The campaign covered roughly 280,000 compounds. About 1,100 (0.39%) were called active. Inconclusive results, whose numbers are uncertain, are shown with a selection of clear calls. The call rests on the fitted dose curve; in most records, active means well fitted inhibition curve with a large enough effect; inconclusive means small, poorly fitted or top-dose-only effect, or effect the other way; inactive means flat fitted curve, though single readings scatter. Potencies of inconclusive entries are left out as doubtful fits.
# Biological target: Microtubule-associated protein tau (Homo sapiens) (UniProt P10636)
# UniProt P10636, sequence (P10636 whole entry, looked up): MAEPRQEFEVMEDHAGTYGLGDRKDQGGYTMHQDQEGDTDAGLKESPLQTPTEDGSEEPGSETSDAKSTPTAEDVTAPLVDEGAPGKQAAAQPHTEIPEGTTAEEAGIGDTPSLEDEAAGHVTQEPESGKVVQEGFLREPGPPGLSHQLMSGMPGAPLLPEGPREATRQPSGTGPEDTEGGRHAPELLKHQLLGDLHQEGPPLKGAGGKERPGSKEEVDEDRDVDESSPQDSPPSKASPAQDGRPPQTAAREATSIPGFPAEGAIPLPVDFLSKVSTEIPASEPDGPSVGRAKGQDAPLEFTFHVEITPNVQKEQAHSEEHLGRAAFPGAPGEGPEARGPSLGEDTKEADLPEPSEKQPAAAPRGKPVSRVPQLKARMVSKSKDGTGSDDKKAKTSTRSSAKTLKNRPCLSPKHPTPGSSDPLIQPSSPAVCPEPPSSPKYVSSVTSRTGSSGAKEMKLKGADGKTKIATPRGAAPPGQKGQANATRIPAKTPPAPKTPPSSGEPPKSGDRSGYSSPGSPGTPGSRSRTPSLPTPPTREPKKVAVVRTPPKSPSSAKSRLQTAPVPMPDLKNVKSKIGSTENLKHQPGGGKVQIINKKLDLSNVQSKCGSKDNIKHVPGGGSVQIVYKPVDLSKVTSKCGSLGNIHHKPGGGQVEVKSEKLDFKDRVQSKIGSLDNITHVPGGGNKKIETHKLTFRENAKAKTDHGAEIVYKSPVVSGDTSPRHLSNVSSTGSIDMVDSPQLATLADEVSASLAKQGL
# Experiment: qHTS for Inhibitors of Tau Fibril Formation, Fluorescence Polarization; further: nearly all actives have a fitted effect of over 55% in size
# Details: K18 P301L tau heparin fibrillization, Alexa594 FP, 6 h; series mostly up to 57.7 µM; activity, negative = inhibition: at the top concentration
# Method in brief: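 Human tau K18 […] P301L fragment, 15 uM unlabeled plus 0.24 uM Alexa 594-labeled tau (final), with compound and 20 uM heparin in 100 mM sodium acetate pH 7; 6 hr at 37 C, then Alexa 594 FP read.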
# On the % scale 0 is the no-effect control and ±100 the full control effect; potency means the concentration at half of the fitted maximal effect; tags describe the fitted curve by direction and shape.
Compound,"activity, negative = inhibition",Potency
CN1CCN(c2nc(-c3ccc(Cl)s3)cs2)CC1,inactive: -2.38%,–
CN(C)C=Nc1nonc1-c1ccc(Cl)cc1,–,"inconclusive [inhibitor, single point]"
O=C(Cn1c(-c2cccs2)cc2ccccc21)NCCCN1CCN(c2cccc(Cl)c2)CC1,inactive: 10%,–
O=c1c(Cl)c(Cl)cnn1Cc1nnc(-c2ccccc2Br)o1,–,"inconclusive [inhibitor, single point]"
O=C1CCCc2cc(S(=O)(=O)N3CCCC(C(=O)NCc4ccccc4Cl)C3)ccc2N1 (stereo not drawn),inactive: -14.1%,–
Cc1c(C(=O)N2CCCC2)sc(NC(=O)c2ccccc2)c1C#N,inactive: 7.36%,–
Cc1ccc(S(=O)(=O)N/N=C\c2cc3c(cc2[N+](=O)[O-])OCO3)cc1,–,"inconclusive [inhibitor, partial curve, poor fit]"
CC1=CC(=NOC(=O)/C=C/c2ccccc2)C=C(C)C1=O,–,"inconclusive [inhibitor, partial curve]"
CCOc1ccc2cc(C#N)c(SCC(=O)N3CCC(C)CC3)nc2c1,–,"inconclusive [activator, full curve, poor fit]"
CC(C)CCNC(=O)c1c[nH]c2ccc(S(=O)(=O)Nc3cccc(C(F)(F)F)c3)cc2c1=O,–,active: 14.1 µM
Nc1ncc([N+](=O)[O-])c(Oc2ccccc2F)n1,inactive: 4.97%,–
COc1ccc(Cl)cc1NC(=O)C(C)n1c(=O)cc(C(F)(F)F)c2c(C)nn(C)c21 (stereo not drawn),inactive: 12.2%,–
Cc1ccc(Cn2ccn(Cc3ccc(C)cc3)c(=O)c2=O)cc1,inactive: 4.71%,–
Cc1nc(NCCNC(=O)c2ccco2)c2c(C)c(C)sc2n1,inactive: 3.2%,–
COc1cc(OC)c(NC(=O)c2sc3nc4n(c(=O)c3c2C)CCCC4)cc1Cl,–,"inconclusive [inhibitor, single point]"
Cc1ccc(/C(=N\O)c2oc3c(C)c4oc(=O)cc(C)c4cc3c2C)cc1,–,"inconclusive [inhibitor, single point]"
CCCOc1cccc(C(=O)Nc2cc(-c3nc4ccccc4[nH]3)ccc2C)c1,–,"inconclusive [inhibitor, partial curve]"
COc1ccc(-c2cc(-c3nnc(COC(=O)c4ccc(O)cc4)o3)c3ccccc3n2)cc1OC,–,"inconclusive [inhibitor, partial curve]"
O=C(Nc1ccccc1C(=O)N1CCCCC1)NC1CCCCC1,–,"inconclusive [inhibitor, partial curve, poor fit]"
C[C@@H]1/C=C\CC(=O)OC[C@H](C)C(=O)N[C@@H](Cc2ccccc2)C(=O)OC1,–,"inconclusive [inhibitor, full curve, poor fit]"
CN1CCN(C(=S)Nc2ccc(Oc3ccccc3)cc2)CC1,–,"inconclusive [activator, single point]"
CN(C)/C=C/C(=O)c1ccc(Oc2ncccn2)cc1,–,"inconclusive [inhibitor, partial curve]"
COc1ccc(C(=S)N2CCCCCC2)cc1,–,"inconclusive [inhibitor, single point]"

Compound,"activity, negative = inhibition",Potency
COC(=O)c1cc2oc3ccccc3c2n1CC(=O)Nc1cccc(SC)c1,–,"inconclusive [inhibitor, partial curve, poor fit]"
Cc1cccc(NC(=O)Cn2c(=O)n(CCc3ccccc3)c(=O)c3ccccc32)c1,–,"inconclusive [inhibitor, partial curve]"
CCOc1ccc(CN2C(=O)c3ccccc3Sc3ccc(C(=O)NCc4ccc5c(c4)OCO5)cc32)cc1,–,"inconclusive [inhibitor, partial curve]"
COc1ccc2nc(NC(=O)C3CCCN(S(=O)(=O)c4cccs4)C3)sc2c1 (stereo not drawn),–,"inconclusive [inhibitor, partial curve]"
O=C(CSc1nc2ccc([N+](=O)[O-])cc2[nH]1)c1ccc(Cl)cc1,–,"inconclusive [inhibitor, partial curve]"
CCCCNC(=O)c1cccnc1SCC(=O)Nc1ccccc1OC,–,"inconclusive [inhibitor, single point]"
CCN=C1S/C(=C\c2ccc(O)c(OCC)c2)C(=O)N1CC,–,"inconclusive [activator, partial curve, poor fit]"
COc1ccc(-c2c(C#N)c(SCC(=O)Nc3ccc(C)c(C)c3)nc(C)c2C(=O)Nc2ccc(Cl)cc2)cc1,–,"inconclusive [inhibitor, partial curve]"
Cc1cc(-c2ccc(S(=O)(=O)Nc3cccc(C)c3C)s2)on1,–,"inconclusive [inhibitor, partial curve]"
CC(C)NC1=C(Cl)C(=O)c2ccccc2C1=O,–,"inconclusive [inhibitor, single point]"
O=C(Nc1ccc([N+](=O)[O-])c(NC(=O)C2CCCO2)c1)C1CCCO1 (stereo not drawn),inactive: -3.4%,–
O=C(/C=C/c1ccco1)Nc1ccc(Oc2ccccc2)cc1,–,"inconclusive [inhibitor, single point]"
O=c1c2ccccc2sn1-c1cc(S(=O)(=O)N2CCOCC2)ccc1N1CCCC1,–,active: 31.6 µM
CC(C)CCNC(=O)C(c1ccncc1)N(Cc1cccs1)C(=O)Cn1nnc(-c2ccc(F)cc2)n1 (stereo not drawn),–,"inconclusive [activator, partial curve, poor fit]"
CCN(CC)CCn1c(-c2ccccc2)nc2c(NCCO)nc(C)nc21,–,"inconclusive [inhibitor, full curve, poor fit]"
Cc1cc(-c2n[nH]c(=S)n2Cc2ccco2)nn1C,inactive: -9.83%,–
CC1=C(C(=O)O)N2C(=O)C(NC(=O)C(N)C3=CCC=CC3)C2SC1 (stereo not drawn),–,"inconclusive [inhibitor, partial curve]"
CCc1cc(=O)oc2cc3occ(C)c3cc12,inactive: 2.07%,–
C/C(CCC(=O)OC[C@@H]1O[C@H](C#Cc2ccccc2)C=C[C@@H]1Oc1ccc(C)cc1)=N/O[C@@H](C)c1cn([C@H](CO)Cc2ccccc2)nn1,–,"inconclusive [inhibitor, full curve, poor fit]"
CCCN1CC=C2C(C#N)=C(N)C(C#N)(C#N)C(c3cccc(OC)c3OC)C2C1 (stereo not drawn),–,"inconclusive [inhibitor, single point]"
CCc1cc(C(c2ccc(OC)c(OC)c2)N2CCOCC2)c(NC(=O)c2ccccc2)s1 (stereo not drawn),inactive: 3.74%,–
Cc1nnc(-c2cnn(C)c2N)n1CCCN1CCOCC1,–,"inconclusive [inhibitor, full curve, poor fit]"
COc1ccc(N2CCN(C(c3ccccc3)c3nnnn3Cc3ccc(F)cc3)CC2)cc1 (stereo not drawn),inactive: 16.7%,–

Compound,"activity, negative = inhibition",Potency
COc1cccc([C@@H]2Oc3ccc(Br)cc3C(=O)[C@H]2OC(=O)Nc2cc(OC)c(OC)c(OC)c2)c1,inactive: -9.54%,–
CC(=O)N/N=C(\C)CC(=O)Nc1cccc2c1CCCC2,inactive: -3.4%,–
COc1ccc(S(=O)(=O)Nc2cccc(F)c2C)cc1C(=O)N1CCOCC1,inactive: -8.17%,–
COc1ccc(-c2nn(-c3ccccc3)cc2/C=C(\C#N)S(=O)(=O)c2ccccc2)cc1OC,–,"inconclusive [inhibitor, single point]"
O=C(Nc1ccccc1)c1cccc(S(=O)(=O)Nc2ccccn2)c1,inactive: -0.816%,–
C=CCn1c(C)cc(C(=O)CSc2n[nH]c(N)n2)c1C,inactive: 0.411%,–
COC(=O)c1ccc(NC(=S)Nc2ccccn2)cc1,inactive: -7.38%,–
Cc1cc(C)cc(-n2nnnc2SCC(=O)Nc2cccc(NC(=O)c3ccco3)c2)c1,–,"inconclusive [inhibitor, partial curve]"
COc1cc(NC(=O)c2cc3cccc(OC)c3o2)cc(C(=O)Nc2cccc(C(F)(F)F)c2)c1,–,"inconclusive [inhibitor, partial curve]"
CCOc1ccc2nc(NC(=O)C3CCCN(S(=O)(=O)c4cccs4)C3)sc2c1 (stereo not drawn),–,"inconclusive [inhibitor, partial curve, poor fit]"
Cc1cc(C)c2c(=O)cc(C(=O)Nc3ccc(C)c(Cl)c3)oc2c1,–,"inconclusive [inhibitor, partial curve]"
COc1ccc(C2NC3=C(CCCC3)C(C#N)(C#N)C2(C#N)C#N)cc1 (stereo not drawn),–,"inconclusive [inhibitor, partial curve]"
CCc1nnc(NC(=O)CSc2ccc(-c3nc4ccc(C)cc4[nH]3)cn2)s1,–,"inconclusive [inhibitor, partial curve]"
N#CC1=C2N=C(N)c3c(sc4c3CCCCC4)N2C2=C(C(=O)CCC2)C1c1ccccc1 (stereo not drawn),inactive: 14.8%,–
Cc1ccc2c(c1)c1c(n2CC(O)CN2CCCCC2C)CCCC1 (stereo not drawn),–,"inconclusive [inhibitor, single point]"
COC(=O)CC1=C(C(=O)OC)C(c2cccs2)C(C#N)=C(N)O1 (stereo not drawn),inactive: -9.14%,–
CCOc1ccc(NC(=O)c2ccc(CN3C(=O)C(C)=C(c4ccc(C)cc4)S3(=O)=O)cc2)cc1,–,"inconclusive [inhibitor, single point]"
CC(=O)Nc1ccc(NC(=O)CCc2c(C)nc3c(c(C)nn3-c3ccc(C)cc3)c2C)cc1,–,"inconclusive [inhibitor, partial curve]"
CC(=O)Nc1ccccc1-c1nc2ccccc2n(C(C)C(=O)Nc2cc(Cl)ccc2C)c1=O (stereo not drawn),inactive: -0.795%,–
O=C(Nc1ccccc1Cl)c1ccc(F)c(S(=O)(=O)NCc2ccc(Cl)c(Cl)c2)c1,–,"inconclusive [inhibitor, single point]"
CCC(=O)NC(NC(=S)Nc1c(C)n(C)n(-c2ccccc2)c1=O)C(Cl)(Cl)Cl (stereo not drawn),–,"inconclusive [inhibitor, single point]"
C(#Cc1ccc(C#CCN2CCCC2)cc1)CN1CCCC1,inactive: -3.43%,–
